# Experimental data: PubChem BioAssay AID624417 (National Center for Advancing Translational Sciences (NCATS), 2012)
# About 6,400 (1.6%) of roughly 410,000 compounds were called active. The inconclusive results got no clear call from the source; some entries with a clear call stand among them for comparison. Calls come from the whole dose curve; as a rule, active = well fitted inhibition curve with a large enough effect; inconclusive = small, poorly fitted or top-dose-only effect; inactive = no such curve, though single readings can be large or run the other way. Potencies of inconclusive entries are left out as doubtful fits.
# Target: Glucagon-like peptide 1 receptor (Homo sapiens) (UniProt P43220)
# Assay: qHTS of GLP-1 Receptor Inverse Agonists (Inhibition Mode); note: nearly all actives have a fitted effect of over 55% in size
# Conditions: HEK293 GLP-1R CRE-luciferase, luminescence, 24 h, GLP-1R form is constitutively active; activity change, negative = inhibition: at 38.3 µM (top of the series) unless noted
# Procedure, shortened: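 HEK293 cells stably co-expressing a cAMP-responsive luciferase reporter and constitutively active GLP-1R were seeded, incubated 12 h, then exposed to compounds for 24 h at 37 C. Luminescence was read 12 min after detection reagent; inverse agonists lower signal.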
# % is set by controls: 0 for no effect and ±100 for the full control effect; potency is the fitted concentration of half-maximal effect; tags give direction and shape of the fitted curve.
# UniProt P43220, sequence (P43220 whole entry, looked up): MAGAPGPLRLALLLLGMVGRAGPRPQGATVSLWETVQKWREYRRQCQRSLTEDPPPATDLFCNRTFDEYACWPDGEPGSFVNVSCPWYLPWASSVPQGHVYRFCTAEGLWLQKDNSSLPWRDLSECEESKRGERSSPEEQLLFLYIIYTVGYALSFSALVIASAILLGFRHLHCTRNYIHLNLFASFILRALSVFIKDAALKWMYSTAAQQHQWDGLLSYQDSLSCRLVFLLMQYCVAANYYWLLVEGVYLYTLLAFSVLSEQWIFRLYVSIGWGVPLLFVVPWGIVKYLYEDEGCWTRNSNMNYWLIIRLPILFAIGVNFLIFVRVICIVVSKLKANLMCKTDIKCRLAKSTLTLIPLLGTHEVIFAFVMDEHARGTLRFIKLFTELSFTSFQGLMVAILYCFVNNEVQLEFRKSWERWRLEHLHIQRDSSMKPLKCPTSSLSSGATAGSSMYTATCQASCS
Compound,Potency,"activity change, negative = inhibition"
CCc1ccc(CN(C)C(=O)c2cc(S(=O)(=O)N3CCN(CC)CC3)ccc2Cl)cc1,"inconclusive [inhibitor, single point]",–
CN(C)CCCN(C(=O)c1ccc(S(=O)(=O)N2CCCC2)cc1)c1nc2c(F)cc(F)cc2s1,"inconclusive [inhibitor, partial curve]",–
Cc1ccccc1S(=O)(=O)NC(=O)C1(C)CCN1C(=O)C1(c2ccc(Cl)cc2)CC1 (stereo unspecified),"inconclusive [inhibitor, partial curve, poor fit]",–
Cc1ccc(NC(=O)Nc2nc3ccccc3s2)cc1NC(=O)Nc1nc2ccccc2s1,"inconclusive [inhibitor, full curve, poor fit]",–
Cc1ccc(-c2csc(NC(=O)c3c(C)noc3C)n2)s1,"inconclusive [inhibitor, single point]",–
Cc1cc(C(=O)N[C@H](c2ccccc2)[C@@]2(C)C[C@@H]2[C@@H](C)C(=O)Nc2ccc3ccccc3c2)no1,"inconclusive [inhibitor, partial curve, poor fit]",–
O=C1NC(CCc2ccccc2)C(=O)N1CCOc1cccc(Br)c1 (stereo unspecified),"inconclusive [inhibitor, single point]",–
CSc1ccc(CN(C)C(=O)c2cc(S(=O)(=O)NCc3ccccc3)ccc2C)cc1,"inconclusive [inhibitor, partial curve, poor fit]",–
COc1ccc2[nH]cc(CCNC(=O)Nc3cccc(F)c3)c2c1,"inconclusive [inhibitor, single point]",–
O=C(Nc1ccccc1)[C@@H]1CC=C[C@@H]2CCN(Cc3ccc(Cl)c(Cl)c3)C(=O)[C@@H]21,"inconclusive [inhibitor, partial curve, poor fit]",–
COc1cccc2sc(Nc3nc(-c4cc5ccccc5oc4=O)cs3)nc12,"inconclusive [inhibitor, partial curve, poor fit]",–
O=C(CCC1CCCCC1)Nc1ccc(C(=O)c2ccncc2)cc1,"inconclusive [inhibitor, partial curve, poor fit]",–
CCOc1ccc(CN2C(=O)c3ccccc3Sc3ccc(C(=O)NCCc4ccccc4)cc32)cc1,"inconclusive [inhibitor, partial curve, poor fit]",–
O=S(=O)(c1c(F)cccc1F)N1CCCC2CCCCC21 (stereo unspecified),"inconclusive [inhibitor, partial curve, poor fit]",–
COc1ccc(C=NCC2COc3ccccc3O2)cc1OC (stereo unspecified),–,inactive: 0%
CCOc1ccccc1NC(=O)Cc1csc(COc2cccc(C)c2)n1,"inconclusive [inhibitor, single point]",–
CC(=O)c1cccc(Nc2ncnc3c2cnn3C)c1,–,inactive: 19.9%
c1coc(-c2cc3nc(NCc4ccc5c(c4)OCO5)ccn3n2)c1,–,inactive: 9.23%
COc1ccc(N(C(=O)c2ccco2)S(=O)(=O)c2ccc(F)cc2)cc1,"inconclusive [inhibitor, single point]",–
COc1ccc(F)cc1S(=O)(=O)NC1CCCCCC1,"inconclusive [inhibitor, single point]",–
Cc1cc(Br)cc2c(C(=O)Nc3c(C)n(C)n(-c4ccccc4)c3=O)cc(-c3cccs3)nc12,"inconclusive [inhibitor, partial curve]",–

Compound,Potency,"activity change, negative = inhibition"
OCC1(Cc2ccccc2)CCN(Cc2cnn(-c3ccccc3F)c2)CC1,"inconclusive [inhibitor, single point]",–
CCOc1ccc(NC(=O)CN2CCN(CC(=O)Nc3ccc(F)c(F)c3)CC2)cc1,"inconclusive [inhibitor, partial curve]",–
Cc1nn(-c2ccccc2)c(C)c1-c1ccccc1O,"inconclusive [inhibitor, partial curve, poor fit]",–
CC(=O)c1ccccc1OCC(O)CN1CCN(CCN2C(=O)c3cccc4cccc(c34)C2=O)CC1 (stereo unspecified),"inconclusive [inhibitor, partial curve, poor fit]",–
O=C(COc1ccccc1F)N1c2ccccc2CCc2ccccc21,"inconclusive [inhibitor, partial curve, poor fit]",–
CSc1nc(C)c(C(=O)Nc2ccccc2)c(-c2ccco2)c1C#N,"inconclusive [inhibitor, partial curve]",–
O=C(NCC(c1ccc2c(c1)OCO2)N1CCN(c2ccc(F)cc2)CC1)c1cccc([N+](=O)[O-])c1 (stereo unspecified),"inconclusive [inhibitor, partial curve, poor fit]",–
COc1ccc(C(=O)NC2CC2)cc1OC1CCN(C/C=C/c2ccccc2)CC1,"inconclusive [inhibitor, single point]",–
Cc1nnc(SCc2ccc(C(=O)Nc3cc(Cl)ccc3C)cc2)s1,"inconclusive [inhibitor, partial curve, poor fit]",–
CCCS(=O)(=O)N1CCC(C(=O)NCCCN(CC)c2cccc(C)c2)CC1,"inconclusive [inhibitor, partial curve]",–
Cc1ccc2onc(CNC(=O)Nc3ccccc3C#N)c2c1,–,inactive: 5.7%
Cc1ccc(Cn2c(C(C)Nc3nc(C)cs3)nc3cc(Cl)c(Cl)cc32)cc1 (stereo unspecified),"inconclusive [inhibitor, single point]",–
Cc1c(C(=O)NCC2CCCO2)oc2ccc3c(c12)C(=O)CC(C)(C)O3 (stereo unspecified),"inconclusive [inhibitor, single point]",–
CCc1ccc(NC(=O)C2CCCN(c3nn4cc(-c5ccc(OC)cc5)nc4s3)C2)cc1 (stereo unspecified),–,inactive: 11.6%
Clc1ccc(/C=C/c2ncc3ccccn23)cc1,"inconclusive [inhibitor, single point]",–
COc1ccc(N2CCN(CCCn3ccc(NC(=O)OCc4ccccc4)nc3=O)CC2)cc1,–,inactive: -8.21%
Cc1nc(COc2ccc(C(=O)NCc3ccccc3CN3CCCCC3)cc2)cs1,"inconclusive [inhibitor, single point]",–
CCOC(=O)CNc1c(-c2ccc(Cl)cc2)nc2cnccn12,–,inactive: 0%
CCOC(=O)Cc1ccc(NC(=O)n2ncc3cc(Cl)ccc32)cc1,–,inactive: -12.6%
COc1cc(NS(=O)(=O)c2c(C)oc3c(F)c(F)c(F)c(F)c23)cc(OC)c1OC,"inconclusive [inhibitor, single point]",–
CCOc1ccc(-c2noc(CCC(=O)NC3CCCCC3)n2)cc1OC,–,inactive: -6.08%

Compound,Potency,"activity change, negative = inhibition"
CCc1ccc(S(=O)(=O)N2CCCC(N3CCN(c4ccc(OC)cc4)CC3)C2)cc1 (stereo unspecified),"inconclusive [inhibitor, partial curve, poor fit]",–
C[C@@H]1C(c2cccc(Cl)c2)=NN(c2ccc(Br)cc2)[C@H]1C(=O)N1CCOC1=O,"inconclusive [inhibitor, single point]",–
Cc1ccc2c(=O)n3c(nc2c1)C(Cc1ccc(O)cc1)NC(=O)c1cc2ccccc2cc1-3 (stereo unspecified),"inconclusive [inhibitor, full curve, poor fit]",–
CCCCC(=O)N(Cc1nc2sc(C)c(C)c2c(=O)[nH]1)C1CCCC1,"inconclusive [inhibitor, single point]",–
COc1ccc(OCc2ccc(-c3nc(C#N)c(NCc4ccccc4)o3)o2)cc1,"inconclusive [inhibitor, single point]",–
CC1(C(=O)NCc2cccs2)Cc2c(-c3cccc(C(F)(F)F)c3)ccnc2O1 (stereo unspecified),"inconclusive [inhibitor, full curve]",–
O=[N+]([O-])c1ccc(CSc2ccc(S(=O)(=O)N3CCCCC3)cn2)cc1,"inconclusive [inhibitor, single point]",–
CCc1ccccc1NS(=O)(=O)c1ccc2oc(=O)c3ncn(C)c3c2c1,"inconclusive [inhibitor, partial curve, poor fit]",–
COCCOC(=O)c1c(C)oc2c1cc(NS(=O)(=O)c1ccc(Cl)c(C)c1)c1ccccc12,–,inactive: 4.48%
CCc1nc2ccc(C(=O)NC(C)(C)C)cn2c1N(CC)Cc1cccc(Br)c1,"inconclusive [inhibitor, single point]",–
O=C(CSc1nnc(Cc2cccs2)n1Cc1ccco1)Nc1ccc(Cl)cc1Cl,"inconclusive [inhibitor, full curve, poor fit]",–
C[C@H](NC(=O)c1[nH]cnc1C(=O)N[C@H](C)c1ccccc1)c1ccccc1,"inconclusive [inhibitor, single point]",–
CC/C(=N/NC(=O)c1ccc2c(c1)OCO2)c1ccccc1O,"inconclusive [inhibitor, partial curve, poor fit]",–
COc1cc(OC)cc(C(=O)Nc2ccc(N3CCN(C(=O)c4cccs4)CC3)cc2)c1,"inconclusive [inhibitor, full curve]",–
CC12CCC(=O)N1C(C(=O)O)Cc1c2[nH]c2ccccc12 (stereo unspecified),–,inactive: -5.44%
CCOC(=O)COc1c(OC)cc(Cl)cc1C1Nc2ccccc2C(=O)N1c1cccc(C)c1 (stereo unspecified),"inconclusive [inhibitor, single point]",–
COc1ccc(C(=O)Cc2nnc(C)s2)cc1,–,inactive: 8.32%
COc1ccc(NC(=O)COc2ccccc2Cc2ccccc2)cn1,"inconclusive [inhibitor, partial curve, poor fit]",–
O=C(Nc1ccc(Cl)cc1)C1Cc2c(-c3cccc(F)c3)ccnc2O1 (stereo unspecified),"inconclusive [inhibitor, single point]",–
